Hit rate of the full screen: of about 310,000 compounds, about 14,000 (4.5%) showed an effect of 50% or more. Effects have a minus sign here. Some of the results follow.
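Note: peak tail current of the secondary pulse compared with the same well before compound.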

human ether-à-go-go-related gene (hERG) potassium channel, sequence (Q12809 whole entry, looked up): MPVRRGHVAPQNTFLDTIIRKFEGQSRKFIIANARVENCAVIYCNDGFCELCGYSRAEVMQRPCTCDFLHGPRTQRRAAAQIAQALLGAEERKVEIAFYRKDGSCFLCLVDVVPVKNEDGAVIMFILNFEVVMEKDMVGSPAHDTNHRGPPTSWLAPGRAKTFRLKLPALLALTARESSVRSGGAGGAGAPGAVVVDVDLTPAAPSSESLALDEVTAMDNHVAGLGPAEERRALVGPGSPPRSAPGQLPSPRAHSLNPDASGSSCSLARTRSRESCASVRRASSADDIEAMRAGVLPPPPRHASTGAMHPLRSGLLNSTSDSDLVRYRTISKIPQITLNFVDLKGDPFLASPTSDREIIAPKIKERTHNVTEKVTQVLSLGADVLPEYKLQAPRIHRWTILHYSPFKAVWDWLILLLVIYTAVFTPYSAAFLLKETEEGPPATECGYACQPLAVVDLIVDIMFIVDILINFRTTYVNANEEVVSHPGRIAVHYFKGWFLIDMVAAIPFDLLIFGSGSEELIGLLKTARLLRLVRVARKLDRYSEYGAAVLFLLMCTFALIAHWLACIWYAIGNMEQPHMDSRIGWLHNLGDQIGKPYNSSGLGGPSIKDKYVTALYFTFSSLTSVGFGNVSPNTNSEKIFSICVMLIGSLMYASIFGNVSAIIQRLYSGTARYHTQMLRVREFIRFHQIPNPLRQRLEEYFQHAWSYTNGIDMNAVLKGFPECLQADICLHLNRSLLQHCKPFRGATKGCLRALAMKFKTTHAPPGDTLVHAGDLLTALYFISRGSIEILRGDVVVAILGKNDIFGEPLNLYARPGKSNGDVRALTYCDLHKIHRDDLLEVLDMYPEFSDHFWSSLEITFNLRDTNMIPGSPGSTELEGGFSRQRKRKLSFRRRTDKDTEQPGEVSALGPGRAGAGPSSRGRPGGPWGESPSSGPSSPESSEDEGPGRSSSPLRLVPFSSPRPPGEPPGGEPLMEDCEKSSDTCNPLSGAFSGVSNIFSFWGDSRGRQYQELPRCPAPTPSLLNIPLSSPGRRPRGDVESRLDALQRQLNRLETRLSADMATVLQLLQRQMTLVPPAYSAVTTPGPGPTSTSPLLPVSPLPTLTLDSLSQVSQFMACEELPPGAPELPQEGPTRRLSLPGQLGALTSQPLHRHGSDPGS

This experiment has as its target human ether-à-go-go-related gene (hERG) potassium channel (human, UniProt Q12809). As to the kind of experiment: primary screen, population patch clamp on CHO cells stably expressing hERG.
For the compound `CCc1nc2ccccc2n1Cc1ccc(F)cc1`, the “hERG current change (%, negative = inhibition) at 10uM” value is on record as -0.73%.

In the case of `CCc1nnc(NC(=O)c2ccc3c(c2)C(=O)N(CC)C3=O)s1`, the “hERG current change (%, negative = inhibition) at 10uM” value is -7.81%.

`O=C(NC(=S)NCc1ccccc1)c1ccccc1`: the “hERG current change (%, negative = inhibition) at 10uM” value was determined as 1.09%.

Take `N#Cc1cccc(CN2CCC(=O)N(CCO)CC2)c1`: the “hERG current change (%, negative = inhibition) at 10uM” value was 13.8%.

In the case of `CC1C(=O)C(C)C(c2cccc(Br)c2)NC1c1cccc(Br)c1` (centres unmarked), the “hERG current change (%, negative = inhibition) at 10uM” value is recorded as 25.7%.

In the case of `CC(C)(C)CC(=O)Nc1cc(S(=O)(=O)N2CCCCCC2)ccc1Cl`, the “hERG current change (%, negative = inhibition) at 10uM” value is on record as 20.8%.

For `CCOC(=O)c1[nH]c(C)c(CN(Cc2ccco2)C(=O)C(F)(F)F)c1C`, the “hERG current change (%, negative = inhibition) at 10uM” value is reported as -5.22%.

With `CCOc1ccc2c(O)csc2c1`, the “hERG current change (%, negative = inhibition) at 10uM” value was 11.6%.

As for `NNC(=O)Cn1cnc2ccccc21`, the “hERG current change (%, negative = inhibition) at 10uM” value is 6.05%.

Take `O=C(NC1CCCC1)C(c1ccc(Cl)cc1)N(Cc1ccc(F)cc1)C(=O)CCl` (centres unmarked): the “hERG current change (%, negative = inhibition) at 10uM” value is reported as -6.62%.

Take `CC(Oc1ccccc1F)C(=O)NCCN1CCCCC1` (centres unmarked): the “hERG current change (%, negative = inhibition) at 10uM” value stood at 1.04%.

As to `CN(CC(=O)Nc1cccc(F)c1)C(=O)C1CCN(C(=O)c2ccc(Cl)cc2)CC1`, the “hERG current change (%, negative = inhibition) at 10uM” value is reported as -55.5%.

Consider `O=C(Nc1ccc(F)cc1)Nc1nnc(Cc2ccccc2F)s1`, for which the “hERG current change (%, negative = inhibition) at 10uM” value stood at 1.87%.

Regarding `CS(=O)(=O)N1CCN(c2nc3ccc(Cl)cc3s2)CC1`, the “hERG current change (%, negative = inhibition) at 10uM” value was 5.72%.

`CN=C1S/C(=C\c2ccc(OCC(=O)OC)c(OC)c2)C(=O)N1C`: the “hERG current change (%, negative = inhibition) at 10uM” value was found to be 12.6%.

With `COc1ccccc1C(=O)Nc1ccc(Cc2ccncc2)cc1`, the “hERG current change (%, negative = inhibition) at 10uM” value is given as -22%.

As to `CCN(Cc1ccccc1)C(=O)c1ccccc1C`, the “hERG current change (%, negative = inhibition) at 10uM” value amounted to 1.76%.

Consider `C=CCOC(=O)C1=C(C)OC(N)=C(C#N)C1c1ccccc1F` (centres unmarked), for which the “hERG current change (%, negative = inhibition) at 10uM” value was -38.9%.

Regarding `CC1CC(C)CN(S(=O)(=O)c2ccc(C(=O)OCC(=O)NCCN3C(=O)CSC3=O)cc2)C1` (centres unmarked), the “hERG current change (%, negative = inhibition) at 10uM” value is reported as -17.7%.

`COc1ccc(-c2nc(SCC(=O)NC3CCCCC3)n[nH]2)cc1`: the “hERG current change (%, negative = inhibition) at 10uM” value is reported as -17.7%.

Regarding `CN1C(=S)SC(C)(C)C1N(O)C(=O)Nc1ccc(Cl)cc1` (centres unmarked), the “hERG current change (%, negative = inhibition) at 10uM” value came out at 11.7%.

For `CCN(CC)c1ccc(C(=O)Nn2cnc3ccccc3c2=O)cc1`, the “hERG current change (%, negative = inhibition) at 10uM” value was found to be 2.42%.

Take `CCn1ccc(C(=O)Nc2ccc3c(c2)CCC3)n1`: the “hERG current change (%, negative = inhibition) at 10uM” value is -6.95%.

Consider `Cc1ccc(C(=O)N/C(=C/c2cccs2)C(=O)N2CCCCC2)cc1`, for which the “hERG current change (%, negative = inhibition) at 10uM” value is -35.4%.

Regarding `COCn1c(COc2ccccc2)nc2ccccc21`, the “hERG current change (%, negative = inhibition) at 10uM” value is listed as -10.6%.

Turning to `C1COCCO1.O=C(Nc1cccc2ccccc12)C(=O)C1C(=O)Nc2ccccc21` (centres unmarked), the “hERG current change (%, negative = inhibition) at 10uM” value came to 10.7%.

Regarding `Cc1ccc(S(=O)(=O)[O-])cc1.Cn1cc[n+](C)c1COc1ccc(C=O)cc1`, the “hERG current change (%, negative = inhibition) at 10uM” value is reported as 14.6%.

Regarding `FC(F)Oc1ccc(/C=N/n2c(Cc3ccc(Br)cc3)n[nH]c2=S)cc1`, the “hERG current change (%, negative = inhibition) at 10uM” value came out at 11.7%.

`Oc1ccccc1-c1cncn1Cc1ccccc1`: the “hERG current change (%, negative = inhibition) at 10uM” value is given as -12.8%.

In the case of `COc1ccc(CN2C(=O)c3cccnc3C2=O)cc1S(=O)(=O)NCc1ccc(C)o1`, the “hERG current change (%, negative = inhibition) at 10uM” value is recorded as 2.28%.

As to `COC(=O)C(CC(=O)c1ccc(Br)cc1)n1cccn1` (centres unmarked), the “hERG current change (%, negative = inhibition) at 10uM” value came out at 10.8%.

Regarding `CCOC(=O)C1=C(CSc2nc3c(cc2C#N)CN(C)CC3)OC(N)=C(C#N)C1c1ccc(F)cc1` (centres unmarked), the “hERG current change (%, negative = inhibition) at 10uM” value was -30.6%.

On to `COc1cccc(CN2CC(C(=O)N3CCCCCC3)CCC2=O)c1` (centres unmarked), for which the “hERG current change (%, negative = inhibition) at 10uM” value was 13.4%.

On to `COc1ccc(OC)c(NC(=O)CN2C(=O)COc3ccc(S(=O)(=O)N4CCCC4)cc32)c1`, for which the “hERG current change (%, negative = inhibition) at 10uM” value is -10.6%.

Consider `CSc1cccc(NC(=S)N(Cc2ccc(C)cc2)Cc2cccnc2)c1`, for which the “hERG current change (%, negative = inhibition) at 10uM” value is recorded as -2.68%.

In the case of `O=C(c1cc(S(=O)(=O)N2CCN(c3ccccc3)CC2)ccc1Cl)N1CCCCCCC1`, the “hERG current change (%, negative = inhibition) at 10uM” value is recorded as -22%.

For the compound `COC(=O)c1ccc(C2C(Oc3ccccc3)C(=O)N2CCc2ccc(F)cc2)cc1` (centres unmarked), the “hERG current change (%, negative = inhibition) at 10uM” value turned out to be 15.5%.

As to `Cc1ccc(S(=O)(=O)C2(C(=O)Nc3ccc(C(C)C)cc3)CC2)cc1`, the “hERG current change (%, negative = inhibition) at 10uM” value stood at 1.08%.

For `CC(=O)/C(=N\Nc1ccccc1)Sc1nnc(-c2ccccc2)n1-c1ccccc1`, the “hERG current change (%, negative = inhibition) at 10uM” value amounted to 2.65%.

For `CCC(=O)Nc1ccc(C(=O)NNC(=O)COc2cc(C)ccc2C)cc1`, the “hERG current change (%, negative = inhibition) at 10uM” value came out at 21.5%.

Take `O=C(Oc1ccccc1C(=O)Oc1ccccc1)c1ccco1`: the “hERG current change (%, negative = inhibition) at 10uM” value stood at 16.6%.

Regarding `CCCOc1ccc(S(=O)(=O)N2C(=O)CC(=O)N(Cc3ccc(OCC)cc3)C2=O)cc1`, the “hERG current change (%, negative = inhibition) at 10uM” value is reported as 2.51%.

On to `O=C(NCCc1ccc(Cl)cc1)/C(=C/c1cccnc1)NC(=O)c1ccccc1`, for which the “hERG current change (%, negative = inhibition) at 10uM” value is on record as -70.9%.

Take `CC(=O)c1ccc(OCc2cc(C(=O)NC3CCCCC3)no2)cc1`: the “hERG current change (%, negative = inhibition) at 10uM” value is 5.17%.
